# Assay results reported in publication PMC4336329 (PLoS ONE, 2015).
# Among all 310,000 compounds or so, about 14,000 (4.5%) showed an effect of 50% or more. Effects have a minus sign here. The list shows a part of the results.
# Biological target: human ether-à-go-go-related gene (hERG) potassium channel (human, UniProt Q12809)
# Assay: primary screen, population patch clamp on CHO cells stably expressing hERG
# 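Also: peak tail current of the secondary pulse compared with the same well before compound.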
# human ether-à-go-go-related gene (hERG) potassium channel, sequence (Q12809 whole entry, looked up): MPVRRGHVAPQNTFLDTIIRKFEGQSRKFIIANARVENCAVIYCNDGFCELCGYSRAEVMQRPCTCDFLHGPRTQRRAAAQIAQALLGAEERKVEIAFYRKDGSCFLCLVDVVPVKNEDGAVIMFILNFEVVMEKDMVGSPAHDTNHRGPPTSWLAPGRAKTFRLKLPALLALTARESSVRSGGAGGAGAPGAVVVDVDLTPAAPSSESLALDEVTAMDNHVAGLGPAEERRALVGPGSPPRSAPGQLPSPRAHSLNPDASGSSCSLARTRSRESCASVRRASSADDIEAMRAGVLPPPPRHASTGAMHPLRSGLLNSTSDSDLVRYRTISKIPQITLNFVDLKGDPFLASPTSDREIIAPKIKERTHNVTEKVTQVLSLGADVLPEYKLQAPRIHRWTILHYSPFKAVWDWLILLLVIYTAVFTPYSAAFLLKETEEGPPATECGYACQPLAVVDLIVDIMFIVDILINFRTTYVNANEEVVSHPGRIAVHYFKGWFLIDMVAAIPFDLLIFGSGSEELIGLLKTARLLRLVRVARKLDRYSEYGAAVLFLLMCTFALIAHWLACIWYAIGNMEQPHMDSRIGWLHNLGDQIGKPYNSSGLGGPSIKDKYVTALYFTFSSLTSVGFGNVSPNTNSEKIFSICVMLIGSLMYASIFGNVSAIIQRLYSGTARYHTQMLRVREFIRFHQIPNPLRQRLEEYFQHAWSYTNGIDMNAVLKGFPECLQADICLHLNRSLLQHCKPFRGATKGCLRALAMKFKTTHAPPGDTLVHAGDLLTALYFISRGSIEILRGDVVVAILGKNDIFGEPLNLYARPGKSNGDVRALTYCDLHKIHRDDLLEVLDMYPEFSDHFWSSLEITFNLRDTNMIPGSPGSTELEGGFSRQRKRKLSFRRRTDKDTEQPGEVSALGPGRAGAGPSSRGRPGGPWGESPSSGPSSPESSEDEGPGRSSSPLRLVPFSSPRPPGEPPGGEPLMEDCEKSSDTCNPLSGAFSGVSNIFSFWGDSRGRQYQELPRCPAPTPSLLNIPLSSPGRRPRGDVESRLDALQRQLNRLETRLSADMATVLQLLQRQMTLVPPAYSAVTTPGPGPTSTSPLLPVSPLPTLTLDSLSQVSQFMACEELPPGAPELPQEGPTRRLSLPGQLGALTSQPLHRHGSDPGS
row,Compound,"hERG current change (%, negative = inhibition) at 10uM [%]"
1,Cc1ccc(OCC(O)Cn2nc(C)cc2C)cc1 (centres unmarked),8.88
2,COc1ccc(C(=O)C(/C=N/O)=N/Nc2ccc(F)cc2)cc1,23.9
3,Cc1cc(=O)oc2cc(OCC(=O)NCc3cccnc3)ccc12,6.99
4,O=c1[nH]cnc(O)c1N=Nc1ccccc1,12.4
5,Cc1noc(C)c1CSc1nnc2cc(C)c3ccccc3n12,0.629
6,N#C/C(=C/c1cn[nH]c1-c1ccc(Br)cc1)C(=O)O,14.3
7,CC(C)CC(=O)Nc1c2c(nn1-c1cccc(Cl)c1)CS(=O)C2 (centres unmarked),11.6
8,O=C(CCc1ccccc1)NCc1ccncc1,18.4
9,CCCCCCNC(=O)N[C@@H](C(=O)NCCC[C@H]1CN2C(=NC[C@@H]2Cc2ccccc2)N1CCc1cccc(OC)c1)C(C)C,-18.7
10,Cc1cc(C)cc(CSc2ccc(S(=O)(=O)N3CCCC3)cn2)c1,-5.17
11,COCc1cc(C)nc(SCC(=O)Nc2nc(C)cs2)c1C#N,-5.8
12,CCOC(=O)/C(=C\c1c[nH]c2ccccc12)NC(C)=O,0.157
13,COC(=O)c1cc2c(cc1[N+](=O)[O-])OCO2,9.54
14,COc1cccc(NC(=O)Cc2nnc(SCC(=O)NC3CCCCC3)n2C)c1,24.3
15,CSc1ncccc1C(=O)N(C)CC(=O)Nc1ccc(Cl)cc1,-9.5
16,Cc1ccc2c(C(=O)CN3CCN(c4ccccc4)CC3)c(C)[nH]c2c1,10.4
17,CC(C)CNC(=O)c1cc(-c2ccc(Br)cc2)on1,44.7
18,O=c1[nH]c(O)c(N=Nc2ccc(S(=O)(=O)N3CCOCC3)cc2)c(=O)[nH]1,-4.59
19,CCN1CCN(CC2COc3ccccc3O2)CC1.Cl (centres unmarked),-4.7
20,N/C(=N\OC(=O)CC1CCCCC1)c1cccc(Br)c1,27.9
21,CCCC1=C(C(=O)OCC)C2(C(=O)Nc3ccc(C)cc32)C(C#N)=C(N)O1 (centres unmarked),-6.06
22,NCCc1c[nH]c2ccc(OCc3ccccc3)cc12,5.07

row,Compound,"hERG current change (%, negative = inhibition) at 10uM [%]"
1,CC(=O)OC[C@H]1COc2ccc3ccccc3c2[C@H]1N(C)C(C)=O,-26.3
2,O=C(NN=C1CCCC1)c1sc2ccccc2c1Cl,-46.1
3,CCc1ccccc1NC(=O)Nc1cnccn1,8.92
4,Cc1ccccc1OCC(=O)N(Cc1cccc(F)c1)C1CCS(=O)(=O)C1 (centres unmarked),-4.14
5,COc1cccc(-c2cc(-c3cccnc3)c(C#N)c(N)n2)c1,8.32
6,CCCC(=O)c1cc2c(cc1NC(=O)c1cccs1)OCCO2,20.6
7,COC(=O)C(CC(=O)c1ccccc1)CC(=O)c1ccccc1,4.39
8,Cc1nn(-c2ccccc2)c(Cl)c1/C=N/NC(N)=O,10.8
9,O=C(N/N=C/c1cccnc1)c1sc2ccccc2c1Cl,-2.83
10,COc1cccc(-c2ccc(NC(=O)C3CCCN(CCCn4cccn4)C3)cc2)c1 (centres unmarked),-64.1
11,Cc1ccc2nc(Cl)c(C3CC(c4ccco4)=NN3C(=O)CCCC(=O)O)cc2c1 (centres unmarked),-5.35
12,COc1cc(Cl)cc(/C=C/c2ccc3ccccc3n2)c1OC(C)=O,15.4
13,CCC(c1nnc(SCC(=O)Nc2cc(S(C)(=O)=O)ccc2Cl)n1Cc1ccccc1)N(C)C (centres unmarked),-12.3
14,C=CCON1C(=O)c2ccccc2C1=O,19.8
15,COc1ccc(CCNC(=O)C(NS(=O)(=O)c2cccc3nsnc23)C(C)C)cc1OC (centres unmarked),-0.214
16,Cc1[nH]c(=O)[nH]c(=O)c1NC(=O)c1cccs1,3.34
17,CCCN1CCC(=O)N([C@H](COc2ccccc2)Cc2ccccc2)CC1,-68.1
18,COc1ccc(C(C)=O)cc1CS(=O)(=O)CC(=O)O,20.4
19,Cc1c(C(=O)c2no[n+]([O-])c2C(=O)c2cnn(C)c2C)cnn1C,1.16
20,Cc1cc(C)c2nc(N3C(=O)C(O)=C(C(=O)c4ccco4)C3c3ccco3)sc2c1.O=C(O)C(=O)O (centres unmarked),17.2
21,COc1ccc(CN2CC(=O)N(c3cccc(Cl)c3)C2=S)cc1OC,16.4
22,CCN(CC)S(=O)(=O)c1ccc2[nH]c(=O)cc(C(=O)Nc3ccccc3N3CCCC3)c2c1,-6.87
